Measured values published in ChEMBL document CHEMBL4888484, “Replenishing the malaria drug discovery pipeline: Screening and hit evaluation of the MMV Hit Generation Library 1 (HGL1) against asexual blood stage Plasmodium falciparum ,using a nano luciferase reporter read-out” (2022).
The whole screen tested about 150,000 compounds, of which about 540 (0.36%) showed an effect of 50% or more. Some of the results follow.

The molecules below were run on Plasmodium falciparum (assay: Primary screen in NF54 nanoGlo assay, in single point, at 2uM, 72h; a lower Z score goes with more inhibition). Settings: timepoint 72 hour.
Format: functional, Erythrocyte

Row | SMILES | % Inhibition | Z score
1 | Cc1c[nH]c(CN(C)C(=O)c2cc(N)ccn2)n1 | -3% | 0.44
2 | CC(C)c1cc(C(=O)N2CCc3ccncc32)cc(O)n1 | -7% | 1.13
3 | Cc1sc(C(=O)O)cc1CN1CCOCC1C1CCCO1 (stereo not drawn) | -8% | 0.93
4 | COc1ccc(C[C@@]2(CCC(=O)N3CCC4(C=Cc5ccccc54)CC3)CCC(=O)N2)cc1 | 1% | -0.26
5 | CC(C)COCC(NC(=O)C1CCC(NC(=O)OC(C)(C)C)C1)c1ccco1 (stereo not drawn) | -3% | 0.37
6 | CN1CCN(C(=O)CN2C(=O)c3cc(Cl)c(Cl)cc3C2=O)CC1 | -2% | 0.26
7 | CCOc1cccc(C(=O)N[C@H]2C[C@@H](OCC)C2)c1 | -7% | 0.96
8 | CC(O)C1CN(C(=O)c2ccc3c(c2)CCCCC3=O)CCO1 (stereo not drawn) | -4% | 0.72
9 | Cc1ccc(C(=O)NCCS(=O)(=O)N2CCCC2)n1C(F)F | 14% | -2.02
10 | CS(=O)(=O)Cc1ccc(Cl)c(NC(=O)NCCC2CC2)c1 | -6% | 0.87
11 | COc1ccc(C)cc1N1C(=O)[C@@H]2C[C@H]1CN2C(=O)c1ccc(C(F)(F)F)cc1 | -3% | 0.34
12 | Cc1cccc2[nH]c(COCc3nc([C@H]4CCOC4)no3)nc12 | -19% | 2.02
13 | Cc1ccc(F)c(C(=O)N2CCC([C@@H](O)CCc3ccccc3)CC2)c1F | -18% | 2.75
14 | CN(C[C@H]1COCCO1)C(=O)c1ccc(-c2ccc(O)c(C(=O)O)c2)cc1 | -2% | 0.26
15 | O=C(Cc1nc(-c2cccnc2)n[nH]1)Nc1ccc(F)c(F)c1 | -15% | 2.39
16 | CCn1cnnc1CN(C)C(=O)c1cccc(-c2ccnc(OC)c2C#N)c1 | 0% | 0.08
17 | CC(C)(C)OC(=O)N1CCC2(CC1)OCCC2=O | -10% | 0.95
18 | COc1ccc([C@@H]2C=C(c3ccc(Cl)cc3)Nc3ncnn32)cc1OCc1ccccc1 | 6% | -0.94
19 | COc1ncccc1C(=O)N[C@@H](C)COc1ccc(F)cc1F | -3% | 0.23
20 | CCc1[nH]nc(NCc2cccc(OC)n2)c1C | -2% | 0.21
21 | CC1(C)CCCC[C@@H]1NC(=O)c1cccn2c(=O)[nH]nc12 | -8% | 0.97
22 | Cc1cccc(Cn2nc(-c3ccc(C)o3)nc2[C@H]2CCNC2)c1 | -20% | 1.97
23 | OCCn1nc(C2CC2)nc1CCc1ccc(-c2ccccc2)cc1 | -14% | 1.98
24 | CC(C)(C)c1nc(CCNC(=O)N[C@@]2(C)CCOC2)cs1 | -11% | 1.48
25 | Cc1nc(NC(=O)NCCc2cscn2)ccc1Br | -14% | 2.26
26 | CCN(C)S(=O)(=O)N(C)CC1(CO)CCC1 | -7% | 0.63
27 | CCc1cnc([C@H](C)NCCCC#N)s1 | -13% | 1.61

Row | SMILES | % Inhibition | Z score
28 | O=C(COC(=O)c1ccc2c(c1)CCCC2)Nc1ccc2[nH]c(=O)[nH]c2c1 | -12% | 1.96
29 | COc1ccccc1CNCCNC(=O)c1ccncc1 | 35% | -1.18
30 | COCC(=O)N1CCC[C@H](n2cnc3ccccc3c2=O)C1 | -1% | 0.09
31 | Cc1cnc(C(=O)N[C@H]2CCN(c3ccc4nncn4n3)C2)cn1 | -5% | 0.83
32 | Cc1nc(CN2CCN(Cc3cccnc3)[C@H]3CS(=O)(=O)C[C@H]32)no1 | -13% | 1.12
33 | O=S(=O)(c1ccc(F)c(Cl)c1)N1CC[C@H](Oc2ccncc2Cl)C1 | 72% | -13.57
34 | Cc1nnccc1NC(=O)N[C@@H]1COC(C)(C)O[C@@H]1c1ccccc1 | -5% | 0.74
35 | N#Cc1nccnc1NCc1noc(C2CC2)n1 | -3% | 0.3
36 | COC(=O)CNC(=O)N1CCC(N2CC3(CCCCC3)[C@H]2c2ccccc2)CC1 | -5% | 0.85
37 | Cc1c(Cl)cccc1NC(=O)CC1CC2CCC1C2 (stereo not drawn) | -12% | 1.16
38 | c1ccc(C[C@@H]2NCCc3c2[nH]c2ccccc32)cc1 | -1% | 0.11
39 | CNc1ncccc1C(=O)NC[C@H]1CCN(c2cnn(C)c(=O)c2)C1 | 5% | -0.6
40 | CCOC(=O)N1CCC(N2C(=O)c3ccc(C(=O)NCc4ccccc4OC)cc3C2=O)CC1 | -9% | 1.31
41 | CC(C)[C@H](NCc1cnn(C)c1)c1ccc2c(c1)CCO2 | -3% | 0.46
42 | CC1CCN(Cc2ccc(C(=O)NC[C@H]3CN(C)C(=O)CO3)o2)CC1 | -2% | 0.4
43 | Cn1nnc2c1CCC(NC(=O)NC1COc3c1ccc(Cl)c3Cl)C2 (stereo not drawn) | -6% | 1.07
44 | Cc1nc2c(c(=O)n1C)CCN(C(=O)c1cccc3c1NCCC3)CC2 | 1% | -0.15
45 | C[C@](O)(CNC(=O)c1ccc(-c2ccsc2)cc1)C1CC1 | -10% | 1.73
46 | O=C(Nc1ccc(Cl)cc1)c1cnn2c3c(cnc12)CCCCC3 | -7% | 1.02
47 | N#CC1(C(=O)N2CCN(S(=O)(=O)c3ccc4ccccc4c3)CC2)CCCCC1 | -9% | 1.47
48 | COc1cc(C)c(-c2nc3ccccc3c(=O)n2Cc2ccccc2)cc1C | 0% | 0.05
49 | CCc1ccccc1S(=O)(=O)Cc1ccc(C(=O)N2CCN(c3ccccc3OC)CC2)o1 | -18% | 2.3
50 | Cc1noc(C)c1CN(C)CC1=CC[C@H]2C[C@@H]1C2(C)C | -6% | 0.94
51 | COC(=O)CN(CC#N)Cc1cccc(Cl)c1F | -9% | 0.97
52 | C[C@H](O)c1cc2n(n1)CCN(Cc1cnn(-c3ccc4ccccc4c3)c1)C2 | -14% | 1.93
53 | O=C(NC[C@H](N1CCOCC1)C(F)(F)F)c1nc2c(s1)CCC2 | -7% | 0.87
54 | CCN(Cc1c(CO)cnc(C)c1O)C[C@H]1CCCO1 | -9% | 1.32
